Data as given in publication PMC3500392 (ACS chemical biology, 2012).
Where a name gives a salt, the structure may show the parent alone.

Assays:
GRK2 [1] = target: T1, GRK2 (Homo sapiens, UniProt P25098, S670A); experiment: GRK2 mediated phosphorylation of light-activated bovine rod outer segments; type: biochemical
T1 sequence (P25098 1-689 S670A): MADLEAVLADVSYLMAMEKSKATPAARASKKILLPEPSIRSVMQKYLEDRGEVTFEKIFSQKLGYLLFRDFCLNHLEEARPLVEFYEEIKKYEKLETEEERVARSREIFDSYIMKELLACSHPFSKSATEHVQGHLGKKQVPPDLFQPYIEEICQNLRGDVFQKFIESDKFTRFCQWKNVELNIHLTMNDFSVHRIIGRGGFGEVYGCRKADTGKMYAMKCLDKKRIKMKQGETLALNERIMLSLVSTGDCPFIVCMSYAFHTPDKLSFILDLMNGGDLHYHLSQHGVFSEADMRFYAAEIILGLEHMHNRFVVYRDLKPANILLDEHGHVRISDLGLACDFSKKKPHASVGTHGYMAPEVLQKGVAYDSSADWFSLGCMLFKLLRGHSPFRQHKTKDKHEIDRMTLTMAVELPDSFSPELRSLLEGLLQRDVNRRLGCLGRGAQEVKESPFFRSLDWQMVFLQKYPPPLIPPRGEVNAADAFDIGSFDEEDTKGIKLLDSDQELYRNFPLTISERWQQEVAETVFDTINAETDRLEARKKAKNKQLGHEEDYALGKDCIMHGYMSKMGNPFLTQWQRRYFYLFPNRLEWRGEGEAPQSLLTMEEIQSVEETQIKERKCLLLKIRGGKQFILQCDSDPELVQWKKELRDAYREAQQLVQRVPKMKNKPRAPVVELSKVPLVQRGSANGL

[2] = test system: adult mouse ventricular myocyte contractility; experiment: Myocyte shortening measurements; conditions: for effect on isoproterenol-induced cardiomyocyte contractility: compared to isoproterenol alone
[3] = test system: cardiac contractility in C57/B6 mice; experiment: In vivo hemodynamic measurements; parameters: species or system mouse; conditions: for βAR-mediated (isoproterenol) in vivo cardiac contractility response: 10 mg kg^−1, 1 h before catheterization
[4] = cited from earlier work
GRK2 [5] = target: T1, GRK2; conditions: Thermofluor, 10 μM, previously determined; cited from earlier work
GRK2 [6] = conditions: cited from earlier work
GRK2 [7] = target: T1, GRK2; type: binding; conditions: 2 nM C13.28-FAM

**Q.** Which “inhibition of GRK2 mediated phosphorylation of ROS” value (GRK2 [1]) does the source give for 4-hydroxy-quinone monohydrate [P-835] here?
**A.** no effect on inhibiting GRK2 kinase activity

**Q.** With `CNCCC(Oc1ccc(C(F)(F)F)cc1)c1ccccc1` (centres unmarked) [fluoxetine] as the compound, how does the “effect on isoproterenol-induced cardiomyocyte contractility” value [2] read?
**A.** negligible effects

**Q.** And the “βAR-mediated (isoproterenol) in vivo cardiac contractility response” value [3]?
**A.** no effect on in vivo βAR-mediated cardiac contractility

**Q.** What about the “inhibition of GRK2 mediated phosphorylation of ROS” value (GRK2 [1]) of the same compound?
**A.** did not inhibit ROS phosphorylation by GRK2

**Q.** Which “Steady state blood plasma level” value ([4]; healthy male adults) does the source give for `Fc1ccc([C@@H]2CCNC[C@H]2COc2ccc3c(c2)OCO3)cc1` [paroxetine, paroxetine hydrochloride] here?
**A.** 125 nM

**Q.** And the “fraction of drug remaining in the plasma” value ([4]; human, in vivo)?
**A.** 1%

**Q.** What about the “effect on baseline myocyte functional parameters or shape” value ([2]; 10 μM, 10 min) of the same compound?
**A.** did not alter baseline myocyte functional parameters or shape

**Q.** What about the “effect on isoproterenol-induced cardiomyocyte contractility” value [2] of the same compound?
**A.** significantly potentiated the isoproterenol effects on contractility

**Q.** What about the heart rate ([3]; 10 mg kg^−1) of the same compound?
**A.** no significant change in heart rate

**Q.** What about the “left ventricular (LV) dP/dt at baseline” value ([3]; 10 mg kg^−1) of the same compound?
**A.** small immediate increase

**Q.** What about the “βAR-mediated (isoproterenol) in vivo cardiac contractility response” value [3] of the same compound?
**A.** significant increased response to isoproterenol

**Q.** With `O=C(N[C@@H]1CNCCC[C@H]1OC(=O)c1cc(O)c(C(=O)c2c(O)cccc2C(=O)O)c(O)c1)c1ccc(O)cc1` [balanol] as the compound, how does the “ΔTm GRK2” value (GRK2 [5]) read?
**A.** 12–19 °C

**Q.** What does the source list for `Nc1ncnc2c1ncn2[C@@H]1O[C@H](COP(=O)(O)OP(=O)(O)OP(=O)(O)O)[C@@H](O)[C@H]1O` [ATP]?
**A.** Km (GRK2 [6]): 28 µM; fraction of aptamer competed off (maximal inhibition of aptamer binding) (GRK2 [7]): 40–70%
